In paper PMC12040169 (PLOS Biology, 2025):
This is one part of the list.

Each molecule was assayed on T1, C. trachomatis L2/434/Bu expressing GFP (CTL2-GFP). Details: total inclusion area; 28.5 h, 10 µM; inhibitor.
T1 construct: L2/434/Bu GFP intracellular growth in HeLa cells
Design: species or system HeLa; C. trachomatis total inclusion area by high-content imaging, normalised to DMSO
In short: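 Host cell viability was gauged from Hoechst-stained nuclei counts, while chlamydial growth was taken from total inclusion area and inclusion number per well. Cells were fixed and imaged by high-content microscopy once bulk GFP and resorufin fluorescence had been measured.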

SMILES | % of control remaining
CN(C)CCCn1cnc2c1c(=O)[nH]c(=O)n2Cc1ccccc1 [CBK291234] | 112.262
O=C(O)c1cc(NC(=O)C2CCCCC2)cc(C(=O)O)c1 [CBK286972] | 95.6201
O=C(Nc1ccc(I)cc1C(=O)NCCN1CCOCC1)c1ccc(Cl)cc1Cl [CBK266157] | 114.086
C[C@@H](c1ccccc1)n1c(=O)[nH]c2ncc(-c3ccc(C(=O)NC4CCCC4)cc3)nc21 [CBK064542] | 69.5348
Cc1cc(C)nc(NS(=O)(=O)c2ccc(Nc3ncnc(N)c3[N+](=O)[O-])cc2)n1 [CBK267217] | 80.1424
CCc1nc2cc(NC(=O)CCCn3ccnc3C)ccc2n1CC [CBK281609] | 74.6136
COc1ccc(F)cc1-c1ccc(CC2(C(=O)NC3CCCCC3)CCOCC2)cc1 [CBK285538] | 107.786
CN(C)Cc1ccc(C(=O)N2CCc3[nH]c4ccccc4c3C2)cc1 [CBK281847] | 106.497
Cc1ccc2[nH]c(-c3ccc(NCc4cc5ccc(C)cc5[nH]c4=O)cc3)nc2c1 [CBK286156] | 100.053
COc1ccc2c(c1)C1(CC(=O)N(CC(=O)N(C)C)C1=O)C(=O)N2CCCN(C)S(C)(=O)=O (stereo not drawn) [CBK075889] | 99.345
Cc1c(OCc2ccccc2)ccc2c1OC1(CCN(C(=O)c3ccccn3)CC1)CC2=O [CBK156441] | 97.2377
c1ccc(C2=NN=C(N3CCOCC3)SC2)cc1 [CBK006876G] | 31.742
CC(C)C(=O)N[C@H]1CC[C@]2(CC1)CNC(=O)c1ccccc1O2 [CBK281675] | 80.767
Clc1ccc(OCC2CCN(Cc3c[nH]cn3)CC2)cc1 [CBK281543] | 85.393
CCCn1ccnc1CNc1nc2c(s1)c(C)nn2C [CBK307254] | 58.0398
Cc1nnc2ccc(N3CCN(Cc4cscn4)CC3)nn12 [CBK304910] | 111.273
FC(F)(F)c1cccc(-c2nccnc2NCc2ccc3c(c2)OCO3)c1 [CBK037350] | 101.955
O=C(O)c1cc(Cl)c(OCc2cc(-c3ccccc3)no2)c(Cl)c1 [CBK295297] | 110.99
O=C(Nc1cncc(OC2CCNCC2)n1)c1cnccn1 [CBK036372T] | 87.182
Cc1ccccc1C1NC(=O)NC2=C1C(=O)N(C)C2 (stereo not drawn) [CBK288026] | 99.2291
CCOC(=O)C1=C(CSc2nc3ccccc3[nH]2)NC(=O)NC1c1cccc([N+](=O)[O-])c1 (stereo not drawn) [CBK268889] | 80.52
Cc1cc(C2CCCCCN2C(=O)c2cc(C3CC3)on2)on1 (stereo not drawn) [CBK285414] | 106.542
CCn1c(C)nnc1CN(CC1CCCO1)C1CCCC1 (stereo not drawn) [CBK304181] | 57.4467
COc1cc(-c2cn3ccnc3c(N(C)CCN(C)C)n2)cc(OC)c1OC [CBK066196] | 127.448
CN(C)Cc1ccc2nc(C(F)(F)F)cc(SCCC(=O)O)c2c1 [CBK149715T] | 84.2245
O=C([C@@H]1C[C@@H]2C=C[C@H]1C2)N1CCC(c2noc3cc(F)ccc23)CC1 [CBK281542] | 113.185

SMILES | % of control remaining
CS(=O)(=O)c1ccc(-c2cnc3[nH]c(=O)n(Cc4cccs4)c3n2)cc1 [CBK064383] | 103.931
Cc1csc(C(Cc2ccsc2)NC(=O)C2CCCO2)n1 (stereo not drawn) [CBK285122] | 72.5207
Fc1ccc(OCc2ccc(-c3nnn[nH]3)cc2)cc1 [CBK267859] | 78.1722
CCc1cc(Br)ccc1S(=O)(=O)NC(CC)COC (stereo not drawn) [CBK045265] | 35.3399
CS(=O)(=O)Nc1ccc(C(=O)Nc2ccc(S(=O)(=O)N3CCCCCC3)cc2)cc1 [CBK268288] | 96.0507
O=C(CSc1nnc(-c2ccncc2)s1)Nc1ccc(Cl)cc1 [CBK270069] | 83.3856
COc1ccccc1N(CC(O)Cn1nc(C)cc1C)S(=O)(=O)c1ccccc1 (stereo not drawn) [CBK264546] | 98.3682
CCC1CCCCN1C(=O)c1cc(C)oc1C (stereo not drawn) [CBK089358] | 60.2938
CN(C)CCN1CCN(c2cncc(-c3cccc(C(=O)O)c3)n2)CC1 [CBK065443] | 120.504
Cc1ccc(CCC(=O)N2CCNCC2C)c(C)c1 (stereo not drawn) [CBK304481] | 47.6466
O=C(O)CC(C(=O)O)c1ccc(F)cc1 (stereo not drawn) [CBK268531] | 106.375
O=C(NC1Cc2ccccc2C1)c1cnccc1C(F)(F)F [CBK200353] | 108.063
O=C1c2ccccc2-c2onc3c(NCc4ccccc4)cc(Nc4ccccc4)c1c23 [CBK261979] | 91.0536
Cc1ccc(C(=O)NCCC(=O)Nc2ccccn2)cc1NC(=O)c1ccco1 [CBK298328] | 118.512
c1ccc2c(c1)/C(=N/OCCN1CCCC1)CC21CCCCC1 [CBK013322] | 68.0249
COc1ccc(-c2onc(C)c2-c2cnn(-c3ccccc3)c2)c(O)c1 [CBK296095] | 113.177
O=C(COc1cc(Cl)c(Cl)cc1Cl)N1CCN(c2ccc([N+](=O)[O-])cc2)CC1 [CBK263783] | 117.738
O=c1c2ccccc2nc(CSc2ncnc3[nH]cnc23)n1-c1cccc(C(F)(F)F)c1 [CBK264991] | 114.429
C=CCn1c(Cc2csc(NC(=O)c3cc4ccccc4o3)n2)n[nH]c1=S [CBK295329] | 117.07
Cc1nnc(-c2cccc(S(=O)(=O)n3ccn(-c4cccc(C(F)(F)F)c4)c3=O)c2)o1 [CBK106592] | 120.905
COc1ccc(C)c(NC(=O)NCCc2c[nH]cn2)c1 [CBK269992] | 102.931
CCn1cc(C(=O)NC2CC3(CCCC3)Oc3ccccc32)c(C)n1 (stereo not drawn) [CBK282340] | 97.1535
Cc1nc2c(c(N(C)C)n1)CCN(C(=O)c1cnn(C(C)C)c1)C2 [CBK307083] | 37.2798
CC(CCc1ccccc1)NC(=O)CCC(=O)O (stereo not drawn) [CBK267918] | 103.112
COc1ccc(C2N(N3C(=O)CC(=O)NC3=O)C(=O)CS2(=O)=O)cc1OC (stereo not drawn) [CBK012702] | 38.4743
CN(Cc1ccccc1NCCn1c(=O)oc2ccccc21)C1CCCCC1 [CBK296678] | 52.5872

SMILES | % of control remaining
N=C(N)NS(=O)(=O)c1ccc(N/C=C\C(=O)c2ccc3ccccc3c2)cc1 [CBK263374] | 59.9607
N=C(Nc1nc(=O)cc(CSc2ccc(Cl)cc2)[nH]1)Nc1cccc2ccccc12 [CBK266504] | 127.778
O=C(O)CNC(=O)Cn1ccc2cc(OCc3ccccc3)ccc21 [CBK286665] | 81.6031
CC(=O)Nc1ccc(-n2cc(COC3CCN(C(=O)OC(C)(C)C)CC3)nn2)cc1 [CBK149481] | 93.3265
CCc1nc2c(Oc3nc4ccccc4s3)cccn2c1N(C=O)Cc1ccc(OC)cc1 [CBK147819] | 81.4391
CN(C)CCN1CCN(c2nc(-c3cccc(C(N)=O)c3)cnc2N)CC1 [CBK063537] | 79.4887
O=C(O)CCC(=O)Nc1ccccc1C(=O)N1CCCCCC1 [CBK269863] | 124.978
Cc1cc(CNC(=O)COc2cc(Cl)ccc2Cl)c2ccccc2n1 [CBK269788] | 66.4495
CC(C)(C)c1ccnc(N[C@H]2CO[C@H]3[C@@H]2OC[C@@H]3NC(=O)c2cccs2)n1 [CBK289520] | 80.8205
COc1ccc(C(=O)Nc2ccc(N3CCOCC3)c(Cl)c2)cc1[N+](=O)[O-] [CBK263894] | 78.1899
Cc1cc(C(=O)N2CCCCCC2c2nn(C)cc2Cl)on1 (stereo not drawn) [CBK285121] | 100.996
O=C(OCc1ccc(Br)cc1)c1ccccc1S(=O)(=O)c1ccccc1[N+](=O)[O-] [CBK265718] | 114.45
Cc1cccc(C)c1NC(=O)CSc1nnc(C(O)c2ccccc2)n1C (stereo not drawn) [CBK269742] | 99.6715
O=C(CSc1nnc(-c2ccco2)n1-c1ccccc1)NCc1ccc2c(c1)OCO2 [CBK267308] | 106.106
CC(C)(C)c1cc(NC(=O)C(C)(C)S(=O)(=O)c2ccc(C(F)(F)F)cn2)no1 [CBK006849] | 82.2313
COc1ccc(F)c(CNCCNC(=O)OC(C)(C)C)c1 [CBK056699] | 88.7493
COc1cccc(CN2CCOC3(CCN(C(=O)OCc4ccccc4)CC3)C2)c1 [CBK161098T] | 114.305
COC(=O)C1(Cc2ccccc2-c2ccncc2)CCNC1 (stereo not drawn) [CBK281435] | 104.453
CC(C)(C)COC(=O)N1CCC(N2CCOc3ccc(-c4ccc(S(C)(=O)=O)cc4)cc3C2)CC1 [CBK169264] | 79.2717
NS(=O)(=O)c1ccc2c(c1)N(Cc1nc(-c3ccco3)no1)CC2 [CBK304291] | 109.332
CCCSc1nnc(-c2c(Cl)c(CC)nn2C)s1 [CBK026135] | 92.6102
CCCCCCOC(=O)c1ccc2c(c1)C(=O)N(c1cccc(N)c1)C2=O [CBK157034] | 103.982
COCCN1CCn2c(nc3cc(NC(=O)c4cccc([N+](=O)[O-])c4)ccc32)C1 [CBK267965] | 96.3459
O=C(Nc1cccc(N2CCCC2=O)c1)c1ccccc1Nc1ccccc1 [CBK297729] | 93.7908
CC(=O)c1ccc(NC(=O)CSc2nc(O)cc(-c3ccccc3)n2)cc1 [CBK269048] | 81.5975
Cn1c(=O)c2[nH]c(-c3ccc(OCC(=O)NCCc4ccccc4)cc3)nc2n(C)c1=O [CBK269092] | 100.227
